Hit rate of the full screen: of about 220,000 compounds, about 16,000 (7.3%) were called active. The inconclusive results got no clear call from the source; some entries with a clear call stand among them for comparison. The call rests on the fitted dose curve; in most records, active means well fitted inhibition curve with a large enough effect (not every such curve was filed as active); inconclusive means small, poorly fitted or top-dose-only effect, or another doubt; inactive means no such curve, though single readings can be large or run the other way. Potencies of inconclusive entries are left out as doubtful fits.
Target: Aldehyde dehydrogenase 1A1 (Homo sapiens) (UniProt P00352)
UniProt P00352, sequence (P00352 whole entry, looked up): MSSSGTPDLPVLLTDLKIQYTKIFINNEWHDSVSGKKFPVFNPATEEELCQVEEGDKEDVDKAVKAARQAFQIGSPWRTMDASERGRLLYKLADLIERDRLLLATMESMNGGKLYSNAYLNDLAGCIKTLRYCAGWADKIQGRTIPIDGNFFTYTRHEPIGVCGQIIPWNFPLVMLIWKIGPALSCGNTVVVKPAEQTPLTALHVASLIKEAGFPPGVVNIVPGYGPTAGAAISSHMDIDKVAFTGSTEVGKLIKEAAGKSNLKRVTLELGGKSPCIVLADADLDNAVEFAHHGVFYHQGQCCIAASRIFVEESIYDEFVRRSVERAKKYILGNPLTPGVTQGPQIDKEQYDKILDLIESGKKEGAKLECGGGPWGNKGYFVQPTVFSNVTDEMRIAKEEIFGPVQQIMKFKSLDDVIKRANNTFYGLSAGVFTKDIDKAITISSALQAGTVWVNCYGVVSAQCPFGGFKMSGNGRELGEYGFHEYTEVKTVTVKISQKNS
Experiment: qHTS Assay for Inhibitors of Aldehyde Dehydrogenase 1 (ALDH1A1)
Details: Purified ALDH1A1, NADH fluorescence, propionaldehyde substrate; series mostly up to 75.3 µM
Potency means the concentration at half of the fitted maximal effect; tags describe the fitted curve by direction and shape.

SMILES	Potency
N#Cc1nc(-c2ccc(F)cc2)oc1NCCN1CCOCC1	inconclusive [inhibitor, partial curve]
CCOC(=O)c1cc(C#N)c(N2CCOCC2)nc1-c1ccccc1	inconclusive [inhibitor, single point]
Cc1ccc(NC(=O)CSc2nnc(Cc3cccn3C)n2-c2ccc(F)cc2)c(C)c1	inactive
COc1ccc(Nc2cc(=O)n(C3CCCCC3)c(=O)[nH]2)c(OC)c1	active: 7.08 µM
CC1CN(CCCOc2ccc([N+](=O)[O-])cc2)CC(C)O1 (centres undefined)	inconclusive [inhibitor, single point]
COc1ccc(NC(=O)COC(=O)[C@@H](NC(=O)c2c(F)cccc2F)C(C)C)cc1	inconclusive [inhibitor, single point]
Cc1ccc(-n2nc3c(c2NC(=O)/C=C\c2ccc4c(c2)OCO4)CSC3)c(C)c1	inconclusive [inhibitor, single point]
O=C(CSc1nnc(Cc2ccccc2)o1)NC1CC2CCC1C2 (centres undefined)	inconclusive [inhibitor, single point]
Cn1c(-c2cccc(OCc3ccccc3)c2)nc2c1c(=O)[nH]c(=O)n2Cc1ccccc1	inconclusive [inhibitor, single point]
O=C(NN=C1CCC(c2ccccc2)CC1)c1cc2c(s1)CCCC2 (centres undefined)	active: 7.94 µM
O=C(/C=C/c1ccco1)Nc1ccc(S(=O)(=O)N2CCOCC2)cc1	inconclusive [inhibitor, single point]
COC(=O)c1c(C(=O)OC)c(-c2ccc(C)cc2)n2c1CS(=O)C2 (centres undefined)	inactive
Cc1[nH]c(C)c2c(=O)[nH]ncc12	inconclusive [inhibitor, single point]
O=C(Cc1cccs1)NCCSc1c(-c2ccc(Cl)cc2)[nH]c2ccccc12	inconclusive [inhibitor, partial curve]
Cc1ccc(S(=O)OCC(=O)Nc2cc(Cl)ccc2N2CCOCC2)cc1 (centres undefined)	inconclusive [inhibitor, single point]
O=C(Cn1c(=O)sc2ccccc21)Nc1nc2c(s1)CCCC2	inconclusive [inhibitor, single point]
[O-][n+]1c2ccc3nonc3c2nn1-c1ccccc1Cl	inconclusive [inhibitor, partial curve]
CCCCC[n+]1cccc2c3ccccc3ccc21	inconclusive [inhibitor, partial curve]
CCOc1ccc(-c2noc(-c3ccncc3)n2)cc1OCC	inconclusive [inhibitor, single point]
CCCSc1cc(N2CCN(C)CC2)nc(-c2ccc(OC)cc2)n1	inconclusive [inhibitor, single point]
O=C(Nc1ccnc(-c2ccncc2)n1)C1CC1	inactive
Cc1ccc(S(=O)(=O)N(C)CC(=O)OCC(=O)NC(c2ccccc2)c2ccccc2)cc1	inconclusive [inhibitor, partial curve]

SMILES	Potency
CC(C)(C)C(=O)Nc1ccccc1C(=O)OCC(=O)c1ccc2c(c1)OCCO2	inconclusive [inhibitor, partial curve]
O=[N+]([O-])c1cccc(/C=N/N2CCN(c3ccccn3)CC2)c1	inconclusive [inhibitor, single point]
N=c1nc(-c2ccccc2)ccn1O	inactive
CCNC(=O)CN(c1ccc(CC)cc1)S(C)(=O)=O	inactive
CN(C(=O)COC(=O)c1ccc2c(=O)n3c(nc2c1)CCC3)c1ccccc1	inconclusive [inhibitor, partial curve]
CCOc1ccc(CN2CCN(S(=O)(=O)c3ccc(NC(C)=O)cc3)CC2)cc1	inconclusive [inhibitor, single point]
CCc1ccc(OCCCC(=O)Nc2nnc(C3CCCO3)s2)cc1 (centres undefined)	inconclusive [inhibitor, single point]
COc1ccc(S(=O)(=O)NCCOc2cccc3cccnc23)cc1OC	inactive
O=C(O)c1cc(=O)[nH]c(=O)[nH]1	inconclusive [inhibitor, single point]
Cn1c(=O)c2c(ncn2Cc2nnc(N)s2)n(C)c1=O	inconclusive [inhibitor, single point]
c1ccc2c(COn3nnc4ccccc43)cccc2c1	inactive
Cc1ccc(NS(=O)(=O)c2ccc(CCC(=O)NCCCOC(C)C)cc2)cc1	inconclusive [inhibitor, single point]
CCCCCOC(=O)Cn1c(N2CCCCCC2)nc2c1c(=O)[nH]c(=O)n2C	inconclusive [inhibitor, partial curve]
Cc1nn(-c2ccccc2)c(N2CCCC2)c1/C=N/NC(=O)c1ccccc1O	inconclusive [inhibitor, single point]
O=c1c(-c2ccc(Cl)cc2)nc2cnc(Nc3ccccc3)nc2n1C1CC1	inactive
Cc1cc(C)cc(Nc2cc(=O)n(C3CCCCC3)c(=O)[nH]2)c1	active: 0.447 µM
O=S(=O)(c1ccc(F)cc1)N1CCN(Cc2ccccc2C(F)(F)F)CC1	inconclusive [inhibitor, single point]
O=C(OC(C(=O)NCC1CCCO1)c1ccc(F)cc1)c1ccco1 (centres undefined)	inactive
c1ccc(COc2cccc(CN3CCN(c4ccccn4)CC3)c2)cc1	inconclusive [inhibitor, partial curve]
Cc1ccc(C(=O)NC(=C(Cl)Cl)S(=O)(=O)c2ccc(C)cc2)cc1	inconclusive [inhibitor, single point]
O=C(Nc1nnc(-c2ccncc2)o1)c1ccccc1F	inconclusive [inhibitor, single point]
CCCC(=O)Nc1cc2c(cc1C(=O)c1ccccc1)OCCO2	inconclusive [inhibitor, single point]
